Laboratory results taken from the supplement of paper PMC7125110.
± gives the standard error. This sample is rich in variants without activity.

B1: glmS ribozyme (parent)
chain: AUAAAAGCGCCAGAACUACAGAAAUGUAGUUGACGAGGAGGAGGUUUAUCGAAUUUUCGGCGGAUGCCUCCAAA

What was measured:
Details in all cases: with glucosamine-6-phosphate
glucosamine-6-phosphate [1] = variants of: B1; assay: self-cleavage kobs at 640 uM GlcN6P; higher = faster cleavage; RNA array
How it was run: (§1)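 Sequenced MiSeq chips were the platform: E. coli RNA polymerase transcribed barcoded ribozyme variants on them in situ, and a hybridised Cy3 probe tracked these at 37 °C. After glucosamine-6-phosphate (40 μM to 10 mM) in HEPES/KCl/Mg(OAc)2 buffer was flowed in, tiles were imaged over ~14 h. Signals normalised to baseline and to non-cleaving reference variants were reduced to per-tile medians and fit to one- or two-exponential decays to obtain kobs. kcat and KM were derived through weighted Michaelis–Menten fits across concentrations.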

glucosamine-6-phosphate [2] = variants of: B1; assay: self-cleavage kobs at 2500 uM GlcN6P; higher = faster cleavage; RNA array
How it was run: as §1

glucosamine-6-phosphate [3] = variants of: B1; assay: self-cleavage kobs at 10000 uM GlcN6P; higher = faster cleavage; RNA array
How it was run: as §1

glucosamine-6-phosphate [4] = variants of: B1; assay: self-cleavage kobs at 160 uM GlcN6P; higher = faster cleavage; RNA array
How it was run: as §1

| Variant | self-cleavage kobs at 640 uM GlcN6P (glucosamine-6-phosphate [1]) [s⁻¹] | self-cleavage kobs at 2500 uM GlcN6P (glucosamine-6-phosphate [2]) [s⁻¹] | self-cleavage kobs at 10000 uM GlcN6P (glucosamine-6-phosphate [3]) [s⁻¹] | self-cleavage kobs at 160 uM GlcN6P (glucosamine-6-phosphate [4]) [s⁻¹] |
| --- | --- | --- | --- | --- |
| A12U G35C C70U | < 1e-05 | < 1e-05 |  |  |
| A12U G35U | < 1e-05 |  |  |  |
| A12U G37A G62U | < 1e-05 | < 1e-05 |  |  |
| A12U G37C A42C | < 1e-05 |  | < 1e-05 |  |
| A12U G38A U47A C58G | < 1e-05 | < 1e-05 |  |  |
| A12U G41C G51A | < 1e-05 | < 1e-05 | < 1e-05 |  |
| A12U G60A | 2.88e-05 ± 1.4e-05 | 4.12e-05 ± 1e-05 | 7.02e-05 ± 8.4e-06 |  |
| A12U U46C C61G G62C | < 1e-05 |  |  |  |
| A12U U49A G59U | < 1e-05 | < 1e-05 |  |  |
| A12U U49G C58A | < 1e-05 |  |  |  |
| A12U U54C G62U | < 1e-05 |  |  |  |
| G13A A14C A42G C70U | 4.53e-05 ± 1.8e-05 | 9.61e-05 ± 1.4e-05 |  |  |
| G13A A33G G44A G60A | < 1e-05 |  | < 1e-05 |  |
| G13A A36U G38C | < 1e-05 |  |  |  |
| G13A C16G A36C G41U A52U | < 1e-05 |  |  |  |
| G13A C34G | < 1e-05 | < 1e-05 | < 1e-05 |  |
| G13A C70U | 0.000154 ± 1.7e-05 | 0.000388 ± 6.1e-05 | 0.000676 ± 9.5e-05 | 7.83e-05 ± 1.4e-05 |
| G13A G35C G59A G60U C68A | < 1e-05 | < 1e-05 |  |  |
| G13A G37C C58G | < 1e-05 | < 1e-05 |  |  |
| G13C A36U C71U | < 1e-05 | < 1e-05 |  |  |
| G13C G29U G41U C68A C70A | < 1e-05 |  |  |  |
| G13C G40C A42C | < 1e-05 | < 1e-05 |  |  |

| Variant | self-cleavage kobs at 640 uM GlcN6P (glucosamine-6-phosphate [1]) [s⁻¹] | self-cleavage kobs at 2500 uM GlcN6P (glucosamine-6-phosphate [2]) [s⁻¹] | self-cleavage kobs at 10000 uM GlcN6P (glucosamine-6-phosphate [3]) [s⁻¹] | self-cleavage kobs at 160 uM GlcN6P (glucosamine-6-phosphate [4]) [s⁻¹] |
| --- | --- | --- | --- | --- |
| G13U A14G G29C U30G G32C U56C U65G | < 1e-05 |  |  |  |
| G13U A14G U49A | < 1e-05 |  |  |  |
| G13U A14U G44C A52G C58G | < 1e-05 |  |  |  |
| G13U A15U A48G U55A | < 1e-05 |  |  |  |
| G13U A42C G44C | < 1e-05 | < 1e-05 |  |  |
| G13U A48C G59U G66U | < 1e-05 |  |  |  |
| G13U A64G C71G | < 1e-05 |  |  |  |
| G13U C50U G51C | < 1e-05 |  |  |  |
| G13U G29A | 3.19e-05 ± 1.3e-05 | 0.000121 ± 2.2e-05 | 0.000246 ± 4.2e-05 |  |
| G13U G35A | < 1e-05 |  |  | < 1e-05 |
| G13U G35C A64U | < 1e-05 | < 1e-05 |  | < 1e-05 |
| G13U G37A A53C G60U C67G | < 1e-05 |  |  | < 1e-05 |
| G13U G37C U56C C67A C71U | < 1e-05 |  |  |  |
| G13U G41C A42U U65C | < 1e-05 | < 1e-05 |  | < 1e-05 |
| G13U G44U A64C C70A | < 1e-05 |  |  |  |
| G13U G51A | < 1e-05 | < 1e-05 | < 1e-05 |  |
| G13U U55G U56C | 7.76e-05 ± 2.4e-05 |  |  |  |
| A14C A15C G32A A33G | < 1e-05 |  |  |  |
| A14C A15G G38U G59A | < 1e-05 | < 1e-05 |  |  |
| A14C A23C G43C | < 1e-05 | < 1e-05 |  | < 1e-05 |
| A14C A33C G40C U56G | < 1e-05 | < 1e-05 |  |  |
| A14C A42C A48C G66U | < 1e-05 | < 1e-05 |  |  |

| Variant | self-cleavage kobs at 640 uM GlcN6P (glucosamine-6-phosphate [1]) [s⁻¹] | self-cleavage kobs at 2500 uM GlcN6P (glucosamine-6-phosphate [2]) [s⁻¹] | self-cleavage kobs at 10000 uM GlcN6P (glucosamine-6-phosphate [3]) [s⁻¹] | self-cleavage kobs at 160 uM GlcN6P (glucosamine-6-phosphate [4]) [s⁻¹] |
| --- | --- | --- | --- | --- |
| A14C A42U G59U C67A | < 1e-05 |  |  |  |
| A14C C16A G43U C68U | < 1e-05 | < 1e-05 |  |  |
| A14C C16U G44U U69G | < 1e-05 |  |  |  |
| A14C C34A A53C G59A A64G | < 1e-05 |  |  |  |
| A14C G29A A42U U65G | < 1e-05 |  |  |  |
| A14C G29A G59A G60U C68U | < 1e-05 |  |  |  |
| A14C G32A G40A A52G U65G C70A | < 1e-05 |  |  |  |
| A14C G32C U56C G59U A64G | < 1e-05 |  |  | < 1e-05 |
| A14C G35A | < 1e-05 | < 1e-05 | < 1e-05 | < 1e-05 |
| A14C G41U | 0.000102 ± 1.6e-05 |  |  |  |
| A14C G43A G44A | < 1e-05 | < 1e-05 | < 1e-05 |  |
| A14C G51C G59U | < 1e-05 |  | < 1e-05 |  |
| A14C G59A | < 1e-05 |  |  | < 1e-05 |
| A14C G59C C71A | < 1e-05 |  |  |  |
| A14C U57A U69A | 4.77e-05 ± 2.2e-05 |  |  |  |
| A14C U57C U65A | < 1e-05 |  |  |  |
| A14C U65C C67U | < 1e-05 |  |  |  |
| A14G A33C U55G G63A C68A | < 1e-05 |  | < 1e-05 |  |
| A14G A33G G37A C50G C70G | 6.3e-05 ± 2.1e-05 | 4.9e-05 ± 1.5e-05 |  |  |
| A14G A36U C68A | < 1e-05 |  |  |  |
| A14G A36U G51A | < 1e-05 |  |  |  |
